84 compounds from ChEMBL document CHEMBL5308541, “MAIP: An Open-Source Tool to Enrich High-Throughput Screening Output and Identify Novel, Druglike Molecules with Antimalarial Activity” (ACS Med Chem Lett, 2023) can be followed below.

Hit rate of the full screen: of about 150,000 compounds, about 540 (0.36%) showed an effect of 50% or more. This is one part of the list.

One may read the % Inhibition as the drop in the measured response relative to a control, in per cent.

For this assay, the system named is Plasmodium falciparum. Put plainly: Primary screen in NF54 nanoGlo assay, in single point, at 2uM, 72h; a lower Z score goes with more inhibition. The class given is functional, Erythrocyte. To be noted: timepoint 72 hour.
Regarding `Oc1cc(CN2CCN([C@H]3CCNC3)CC2)nc2ccc(F)cc12`, the “% Inhibition” value is recorded as -16% and the Z score came to 2.75.
For `Cc1cc(N2CCC(N(C)Cc3cc(-c4ccccc4)n[nH]3)CC2)nc(N)n1`, in that order: 41% and -8.91.
For `C[C@@]1(C2CCN(S(=O)(=O)c3ccco3)CC2)NC(=O)NC1=O`, in that order: -6% and 1.22.
For `Cc1noc(-c2ccnc(N(C)CC3CCN(Cc4ccccc4)CC3)c2)n1`, in that order: -6% and 1.1.
In the case of `C[C@@H](CNc1cc(-n2cccn2)nc(N)n1)CN1CCCC1`, the “% Inhibition” value turned out to be 2% and the Z score is -0.36.
For `CCN(CC)Cc1cccc(CNc2ncnc3ccc(F)cc23)c1`, the “% Inhibition” value is recorded as -1% and the Z score amounted to 0.18.
For `CC1(C)CC(Nc2ccc(S(=O)(=O)C(F)(F)F)cc2)CC(C)(C)N1`, in that order: -1% and 0.13.
For `O=C(NCCN1CCC(N2CCCCC2)CC1)c1cn2c(n1)C(=O)N(CC1CC1)CC2`, in that order: -6% and 1.09.
As for `c1ccc(CN(C[C@H]2CCCO2)c2cc(C3CCNCC3)ncn2)nc1`, the “% Inhibition” value is -5% and the Z score worked out at 0.94.
For `C[C@](O)(CNCc1cc(O)c2ccccc2n1)C(F)F`, in that order: -1% and 0.25.
For `Cc1nccn1Cc1cccc(CNc2nn3cc(-c4ccccc4)nc3s2)c1`, in that order: 7% and -1.04.
For `CN1CCN(C[C@@H](O)CN(C)c2ncnc3[nH]ccc23)CC1`, in that order: -1% and 0.15.
As to `CC(C)N1C[C@@H](CN(C)Cc2ccccn2)CCC1=O`, the “% Inhibition” value stood at 0% and the Z score is listed as -0.03.
For `CCN1C(=O)CC[C@H](CNc2ncnc3[nH]ccc23)[C@H]1c1cnn(C)c1`, in that order: -5% and 0.72.
For `O=S(=O)(NC1CCN(c2ncnc3[nH]ccc23)CC1)c1ccc(F)cc1`, in that order: 2% and -0.4.
For `CN1C(=O)N(C)C2(CCN([C@H]3CCN(c4ccccc4)C3)CC2)C1=O`, in that order: -4% and 0.73.
Regarding `CCN1CCC(N2CCN(c3ccc4cccc(Cl)c4n3)CC2)CC1`, the “% Inhibition” value turned out to be 4% and the Z score was -0.84.
For `CN(C)c1ccnc(N2CCN(c3cc(N4CCOCC4)ncn3)CC2)n1`, in that order: -8% and 1.44.
For `CCc1ncnc(N[C@H]2CCN(C3CCN(C)CC3)C2)c1F`, in that order: -4% and 0.6.
For `CN(CCc1nc2cc(Cl)ccc2[nH]1)CC[C@H]1CCCN1C`, in that order: 9% and -1.78.
Turning to `Cc1ccc(N2CCC(NC(=O)c3cc4sccc4[nH]3)CC2)nc1`, the “% Inhibition” value is given as 9% and the Z score is reported as -1.61.
For `O[C@H]1CC[C@H](n2cnc(-c3ccccc3)c2-c2cccc3nonc23)CC1`, in that order: 1% and -0.2.
For `CN(C)c1ncnc2c1CCN(C(=O)[C@@H]1CCC(=O)NC(=O)N1)C2`, in that order: -3% and 0.54.
For `Cc1cc(C)n(C(C)CC(=O)N2CCOC(c3ncon3)C2)n1` (stereo not drawn), in that order: -14% and 2.1.
For the compound `Cc1ccc2nc(CNCCS(C)(=O)=O)cc(O)c2c1`, the “% Inhibition” value was -11% and the Z score was determined as 1.98.
Regarding `CN(C)C(CNc1ncc(Cl)c(NCC(c2ccco2)N(C)C)n1)c1ccco1` (stereo not drawn), the “% Inhibition” value is reported as -5% and the Z score is recorded as 1.
For `Cc1cnc(Nc2nc3ccc(OC(F)(F)F)cc3s2)s1`, in that order: 0% and 0.1.
Regarding `CN1CCN(C(=O)c2cncc(N3CCN(CCOc4ccccc4)CC3)n2)CC1`, the “% Inhibition” value is -11% and the Z score was found to be 1.85.
Consider `c1cc(CNc2ncnc3sccc23)cc(OC2CCC2)n1`, for which the “% Inhibition” value was -1% and the Z score turned out to be 0.24.
In the case of `CC[C@](O)(CCCO)CNC(=O)c1cccc(-c2ccc3[nH]ccc3c2)c1`, the “% Inhibition” value is recorded as -7% and the Z score is reported as 1.12.
On to `CCC(C(=O)Nc1cc(C)on1)N(C1CCc2nnc(C)n2C1)C(CC)C(=O)Nc1cc(C)on1` (stereo not drawn), for which the “% Inhibition” value was -16% and the Z score came out at 2.84.
For `Cc1cc(C)c2c(CC(=O)N3CCC[C@@]4(CCOC4)C3)coc2c1C`, in that order: 1% and -0.18.
Turning to `Cc1nnc(-c2cccc(-c3cnn(CCN4CCOCC4)c3)c2)s1`, the “% Inhibition” value is recorded as -13% and the Z score was 1.98.
For `COc1ccc2ccc(OCc3nc(C(=O)N(C)Cc4cc(C)no4)co3)cc2c1`, in that order: -6% and 1.1.
For `C[C@H]1CCCCN1CCN(C)c1cc(N)nc(N2CCOCC2)n1`, in that order: 6% and -0.99.
Regarding `Cc1ccc(N2CCC[C@H](Nc3ncnc4[nH]ccc34)C2)nn1`, the “% Inhibition” value came out at 5% and the Z score is -0.9.
For `CC1(C)COCN1C(=O)c1ccc(-n2cncn2)nn1`, in that order: -11% and 1.97.
For the compound `COCCN1CCC[C@@]2(CCN(c3ccnc4cc(Cl)ccc34)C2)C1`, the “% Inhibition” value was found to be 99% and the Z score is listed as -17.32.
For `O=C(c1cc2n(n1)CC1(CCNCC1)OC2)N1CCC([C@H]2CCCNC2)CC1`, in that order: 1% and -0.16.
Take `CNc1cc(-c2cccc(C(=O)N(C)CCCN(C)C)c2)nc(N)n1`: the “% Inhibition” value is -5% and the Z score was 0.94.
For `COc1ccc(-c2nnc(C)o2)cc1NC(=O)c1cc(-c2ccccc2)[nH]n1`, in that order: 0% and 0.
For `Brc1cnc(C2CCOCC2)nc1`, in that order: -7% and 1.31.
For the compound `C1CC2(C1)C(NC1CCN(CCN3CCOCC3)CC1)C1CCOC12` (stereo not drawn), the “% Inhibition” value was -7% and the Z score was 1.57.
For `CC1CCCN(CCNC(=O)C2CCCN(C(=O)c3ccc4[nH]ncc4c3)C2)C1` (stereo not drawn), in that order: -1% and 0.16.
For `CCNc1ccc(-c2ccc3c(c2)CCN3)cn1`, in that order: -8% and 1.81.
For `c1ccc(CN2CCC(Nc3nnc(-c4ccc[nH]4)o3)CC2)cc1`, in that order: 4% and -0.71.
On to `COC(=O)CN1CCC(N[C@H]2CCN(c3ncccc3F)C2)CC1`, for which the “% Inhibition” value worked out at 0% and the Z score is -0.1.
For `CCS(=O)(=O)c1c[nH]c(=O)c(C(=O)N2CCC[C@H](C)CC2)c1`, in that order: -6% and 1.28.
For `Cc1ccccc1[C@]1(O)CCN(C(=O)CN2CCC(c3ccccc3)CC2)C1`, in that order: -10% and 1.66.
For `c1ccc(CO[C@@H]2CCCC[C@H]2NC2CCN(c3ncccn3)CC2)cc1`, in that order: -7% and 1.19.
Consider `Nc1ccc(Nc2ccc(F)cc2)c2ccncc12`, for which the “% Inhibition” value was 47% and the Z score is recorded as -9.42.
For `Fc1ccc([C@H](CNc2nccc(-c3ccccn3)n2)N2CCCC2)cc1`, in that order: 5% and -1.03.
For `Cn1cc(CC(=O)NCc2ccc(Oc3nccs3)cc2)c2ccccc21`, in that order: -10% and 1.72.
For `CC[C@@H](Cn1ccnc1)Nc1nc(-c2cccnc2)nc2c1CCNCC2`, in that order: -8% and 1.29.
As for `CC1(C)NC(=O)N(CCOC(=O)CC2CC3CCC2C3)C1=O` (stereo not drawn), the “% Inhibition” value was -3% and the Z score stood at 0.45.
As for `Cn1cc(-c2cnn(CC3CCN(C(=O)OC(C)(C)C)CC3)c2)cn1`, the “% Inhibition” value worked out at 6% and the Z score is recorded as -0.98.
Consider `O=C(N1CC=C(c2c[nH]c3ccccc23)CC1)C1(Cc2nc3ccccc3s2)CCCC1`, for which the “% Inhibition” value is given as -1% and the Z score amounted to 0.08.
For `Cc1noc2ncnc(NCc3cccc(OCCN(C)C4CCOCC4)c3)c12`, in that order: 2% and -0.34.
On to `Cc1ccncc1Cc1nc(C2(c3cccc(OC(F)(F)F)c3)CC2)no1`, for which the “% Inhibition” value is -4% and the Z score stood at 0.78.
For `Cc1nc(CN(Cc2ccccc2)[C@@H](C)C2CC2)sc1C`, in that order: -6% and 1.2.
For `CCOc1ccc2ncc(C#N)c(NCc3cccc(Cl)c3)c2c1`, in that order: -9% and 1.33.
For `CN(CCc1nc2cc(Cl)ccc2[nH]1)C(=O)[C@@H]1CC2(CCNCC2)CN1`, in that order: -2% and 0.28.
Consider `CC[C@H](C)Oc1cc(CNc2nccc(N3CCOCC3)n2)ccn1`, for which the “% Inhibition” value is reported as -3% and the Z score worked out at 0.61.
For `CN(C)c1ccccc1-c1cccc(C(=O)NC2CCN(CCO)CC2)c1`, in that order: -11% and 1.94.
For `C[C@@H]1CN(c2ncnc3[nH]ccc23)CCN(C2CCC2)C1`, in that order: -3% and 0.54.
For `CN(C)c1ccc(-c2cncc(C(=O)N3CCN(CCN4CCCOCC4)CC3)c2)cc1`, in that order: -7% and 1.14.
For the compound `Cc1cc(N2CCC(NCc3ccc(C(F)(F)F)cc3F)CC2)nc(N)n1`, the “% Inhibition” value worked out at 10% and the Z score is recorded as -2.1.
For `Cc1nc2ccc(C(=O)NCc3ccc(N4CCC[C@H](C)C4)cc3)cc2o1`, in that order: -9% and 1.62.
For `CN1C2CCC1CC(N1CCN(C(=O)c3cnc4ccc(F)cc4c3)CC1)C2` (stereo not drawn), in that order: -7% and 1.16.
Take `COC1CN(c2ncnc3[nH]ccc23)CC1Cc1cc(C)no1` (stereo not drawn): the “% Inhibition” value was 6% and the Z score was -1.14.
Regarding `CN(CCCn1ccnc1)c1ccnc2cc(Br)ccc12`, the “% Inhibition” value amounted to 99% and the Z score is on record as -17.18.
Regarding `Cc1cc(O)c2cccc(-c3cccc4c3CCNC4)c2n1`, the “% Inhibition” value was -10% and the Z score was found to be 1.46.
For `Nc1nc(CCCNC2CCC3(CCNCC3)CC2)cs1`, in that order: 3% and -0.45.
As for `Cc1ccc(C(=O)N2CCC(Nc3nc(N)c4cnn(C)c4n3)CC2)cc1`, the “% Inhibition” value is 13% and the Z score was -2.87.
For `Cc1ccc(NCCCNCc2ccc(Cl)c(F)c2)nc1`, in that order: -1% and 0.08.
Turning to `CC[C@H](O)CN1CCC(Nc2ncc(Cl)cn2)CC1`, the “% Inhibition” value is recorded as -13% and the Z score is reported as 2.62.
For `CCc1cc(-c2nc([C@H](Cc3ccccc3)OC)no2)cc(=O)[nH]1`, in that order: -10% and 1.52.
For `c1cc(COC[C@H]2CCCCO2)cc(Nc2nc3ccccc3o2)c1`, in that order: -1% and 0.24.
For `CCOCCN(Cc1ccc(C(=O)O)o1)C(=O)c1cc(-c2ccc(OC)cc2)n[nH]1`, in that order: -2% and 0.41.
Turning to `CCc1cccc2c(C3CCN(C(=O)[C@H](C)N4CCN(C)CC4)CC3)c[nH]c12`, the “% Inhibition” value amounted to 4% and the Z score is listed as -0.79.
As to `O=C1c2n[nH]c(-c3ccccc3O)c2[C@@H](c2ccccc2F)N1Cc1ccc2c(c1)OCO2`, the “% Inhibition” value is reported as -10% and the Z score is given as 1.49.
For `Fc1ccc(-n2cc(CNCCC3CCN(c4ccncc4)CC3)cn2)cc1`, in that order: 91% and -15.93.
For `CCc1cnc(N)nc1NC[C@H]1CCCCCN1`, in that order: 1% and -0.26.
For `O=C(c1c[nH]c2ccccc12)N1CCN(c2nc(-c3ccsc3)cs2)CC1`, in that order: -8% and 1.44.
